# Experimental data as given in the supplement of paper PMC4967469.
# Lines with a small IC50 respond at low doses; a fit beyond the top or the lowest dose is shown as a bound at that dose. AUC is the area under the same curve over the 256-fold range up to the top dose, as a fraction: 1 means no effect, lower means more sensitive. For part of these data: Any top dose called inferred was calculated from the reported fits. For part of these data: Drugs with an entry number were screened twice under separate entries, and the two screens often disagree.
# Key:
# Test in all cases: Viability of human cancer cell lines after 72 h of drug (GDSC screen)
# JNK-9L = compound: Fc1cc(-c2ccnc(Nc3ccc(-n4cnc(N5CCOCC5)n4)cc3)n2)cc(N2CCOCC2)c1 [JNK-9L]; settings: top dose 5.12 µM; top dose inferred
# Procedure: (§1)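 Human cancer cell lines in 384-well plates, medium with 10% serum, drug for 72 h over a 256-fold dose range (nine 2-fold or five 4-fold steps up to the top dose). Adherent lines were fixed and stained with the nucleic acid dye Syto60, suspension lines read with resazurin; signal relative to control wells, capped at 0 and 100%. One two-parameter sigmoid per drug and line, fitted in a mixed model over all curves with the slope shared within a line.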
# OSU-03012 = compound: NCC(=O)Nc1ccc(-n2nc(C(F)(F)F)cc2-c2ccc3c(ccc4ccccc43)c2)cc1 [OSU-03012]; settings: top dose 16 µM; top dose inferred
# Procedure: as §1
# QS11 = compound: OC[C@H](Cc1ccccc1)Nc1nc(Oc2ccc3c(c2)CCC3)nc2c1ncn2Cc1ccc(-c2ccccc2)cc1 [QS11]; settings: top dose 10.24 µM
# Procedure: as §1
# CUDC-101 = compound: C#Cc1cccc(Nc2ncnc3cc(OC)c(OCCCCCCC(=O)NO)cc23)c1 [CUDC-101]; settings: top dose 5.12 µM; top dose inferred
# Procedure: as §1
# 5-Fluorouracil = compound: O=c1[nH]cc(F)c(=O)[nH]1 [5-Fluorouracil]; settings: top dose 32 µM; top dose inferred
# Procedure: as §1
# RDEA119 = compound: COc1cc(F)c(F)c(Nc2ccc(I)cc2F)c1NS(=O)(=O)C1(C[C@H](O)CO)CC1 [RDEA119]; settings: top dose 5 µM, top dose inferred
# Procedure: as §1
# AC220 = compound: CC(C)(C)c1cc(NC(=O)Nc2ccc(-c3cn4c(n3)sc3cc(OCCN5CCOCC5)ccc34)cc2)no1 [AC220]; settings: top dose 1.024 µM; top dose inferred
# Procedure: as §1
Cell Line,AUC (JNK-9L),IC50 (JNK-9L) [µM],AUC (OSU-03012),IC50 (OSU-03012) [µM],AUC (QS11),IC50 (QS11) [µM],AUC (CUDC-101),IC50 (CUDC-101) [µM],AUC (5-Fluorouracil),IC50 (5-Fluorouracil) [µM],AUC (RDEA119; screen: GDSC drug entry 1014),IC50 (RDEA119; screen: GDSC drug entry 1014) [µM],AUC (RDEA119; screen: GDSC drug entry 1526),IC50 (RDEA119; screen: GDSC drug entry 1526) [µM],AUC (AC220),IC50 (AC220) [µM]
"NCI-H526 (small cell lung carcinoma, suspension)",0.688,1.05,0.695,3.43,0.916,> 10.2,0.569,0.491,0.708,7.5,0.989,> 5,0.985,> 5,0.978,> 1.02
"NCI-H596 (lung adenocarcinoma, adherent)",0.574,0.54,0.804,11,0.966,> 10.2,0.564,0.504,0.793,19.7,0.81,3.65,0.887,> 5,0.962,> 1.02
"NCI-H647 (non-small cell lung carcinoma, adherent)",0.653,0.868,0.779,6.86,0.895,> 10.2,0.666,0.948,0.828,20.9,0.847,3.95,,,0.973,> 1.02
"NCI-H650 (lung adenocarcinoma, adherent)",0.767,2.09,0.833,11.8,0.762,4.01,0.59,0.581,0.902,> 32,0.824,3.38,0.899,> 5,0.986,> 1.02
"NCI-H661 (large cell lung carcinoma, adherent)",0.595,0.616,0.826,12.5,0.922,> 10.2,0.465,0.252,0.937,> 32,0.916,> 5,0.92,> 5,0.973,> 1.02
"NCI-H716 (large intestine, suspension)",0.819,3.95,0.863,> 16,0.969,> 10.2,0.799,3.22,0.915,> 32,,,0.632,0.798,0.956,> 1.02
"NCI-H720 (lung carcinoid, suspension)",0.992,> 5.12,0.931,> 16,0.992,> 10.2,0.942,> 5.12,0.978,> 32,0.99,> 5,0.991,> 5,0.992,> 1.02
"NCI-H727 (lung carcinoid, adherent)",0.525,0.391,0.536,1.33,0.79,8.53,0.817,> 5.12,0.938,> 32,0.856,> 5,0.577,0.58,0.972,> 1.02
"NCI-H747 (large intestine, adherent)",0.659,0.979,0.672,3.37,0.96,> 10.2,0.642,0.866,0.816,22.9,0.621,0.724,0.427,0.189,0.975,> 1.02
"NCI-H810 (large cell lung carcinoma, adherent)",0.418,0.193,0.434,0.666,0.762,3.52,0.213,0.0483,0.536,2.5,0.988,> 5,0.984,> 5,0.972,> 1.02
"NCI-H838 (lung adenocarcinoma, adherent)",0.551,0.444,0.845,12.3,0.969,> 10.2,0.745,1.66,0.802,16.5,0.814,2.86,0.905,> 5,0.985,> 1.02
"NCI-H841 (small cell lung carcinoma, adherent)",0.86,4.33,0.872,15.3,0.988,> 10.2,0.873,4.97,0.917,> 32,0.912,> 5,0.967,> 5,0.973,> 1.02
"NCI-H847 (small cell lung carcinoma, adherent)",0.718,1.15,0.763,4.77,0.849,5.57,0.258,0.0769,0.918,> 32,0.99,> 5,0.981,> 5,0.97,> 1.02
"NCI-H1092 (small cell lung carcinoma, suspension)",0.79,2.31,0.99,> 16,0.98,> 10.2,0.465,0.257,0.912,> 32,0.988,> 5,0.984,> 5,0.974,> 1.02
"NCI-H1155 (large cell lung carcinoma, suspension)",0.795,1.91,0.859,9.69,0.96,> 10.2,0.664,0.834,0.949,> 32,0.935,> 5,0.992,> 5,0.993,> 1.02
"NCI-H1304 (small cell lung carcinoma, suspension)",0.719,1.41,0.782,7.22,0.906,> 10.2,0.77,2.09,0.984,> 32,0.986,> 5,0.978,> 5,0.978,> 1.02
